# Some of the results follow.
# B1: MGL6A (Homo sapiens) (protein)
# chain: MTRTYENFQYLENKVKVQGFKNGPLPLQSLLQRLCSGPCHLLLSLGLGLLLLVIICVVGFQNSKFQRDLVTLRTDFSNFTSNTVAEIQALTSQGSSLEETIASLKAEVEGFKQERQAVHSEMLLRVQQLVQDLKKLTCQVATLNNNGEEASTEGTCCPVNWVEHQDSCYWFSHSGMSWAEAEKYCQLKNAHLVVINSREEQNFVQKYLGSAYTWMGLSDPEGAWKWVDGTDYATGFQNWKPGQPDDWQGHGLGGGEDCAHFTPDGRWNDDVCQRPYHWVCEAGLGQTSQESH
# Assays:
# Test in all cases: glycan array binding signal (z-score within array); higher = stronger binding
# Details in all cases: glycan notation: IUPAC condensed, linker removed; mutation: H262T
# [1] = molecular target: Fuc(a1-2)[GalNAc(a1-3)]Gal(b1-3)GlcNAc(b1-3)GalNAc
# In short: (§1)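 Negative Z-scores can be read as non-binding. The Z-score is calculated within each array and then averaged across arrays of one protein sequence at different concentrations or buffers and across linkers. Arrays, 3228 in all, were curated from the Consortium for Functional Glycomics database and kept only where the protein sequence was available.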
# [2] = molecular target: Fuc(a1-2)[GalNAc(a1-3)]Gal(b1-3)GlcNAc(b1-6)GalNAc
# In short: as §1
# [3] = molecular target: Fuc(a1-2)[GalNAc(a1-3)]Gal(b1-4)Glc
# In short: as §1
# [4] = molecular target: Fuc(a1-2)[GalNAc(a1-3)]Gal(b1-4)GlcNAc
# In short: as §1
# [5] = molecular target: Fuc(a1-2)[GalNAc(a1-3)]Gal(b1-4)GlcNAc(b1-2)Man
# In short: as §1
# [6] = molecular target: Fuc(a1-2)[GalNAc(a1-3)]Gal(b1-4)GlcNAc(b1-2)Man(a1-3)[Fuc(a1-2)[GalNAc(a1-3)]Gal(b1-4)GlcNAc(b1-2)Man(a1-6)]Man(b1-4)GlcNAc(b1-4)GlcNAc
# In short: as §1
# [7] = molecular target: Fuc(a1-2)[GalNAc(a1-3)]Gal(b1-4)GlcNAc(b1-2)Man(a1-3)[Fuc(a1-2)[GalNAc(a1-3)]Gal(b1-4)GlcNAc(b1-2)Man(a1-6)]Man(b1-4)GlcNAc(b1-4)[Fuc(a1-6)]GlcNAc
# In short: as §1
# [8] = molecular target: Fuc(a1-2)[GalNAc(a1-3)]Gal(b1-4)GlcNAc(b1-3)Gal(b1-4)GlcNAc
# In short: as §1
# [9] = molecular target: Fuc(a1-2)[GalNAc(a1-3)]Gal(b1-4)GlcNAc(b1-3)Gal(b1-4)GlcNAc(b1-3)Gal(b1-4)GlcNAc
# In short: as §1
# [10] = molecular target: Fuc(a1-2)[GalNAc(a1-3)]Gal(b1-4)GlcNAc(b1-3)GalNAc
# In short: as §1
# [11] = molecular target: Fuc(a1-2)[GalNAc(a1-3)]Gal(b1-4)GlcNAc(b1-3)[Fuc(a1-2)[GalNAc(a1-3)]Gal(b1-4)GlcNAc(b1-6)]GalNAc
# In short: as §1
# [12] = molecular target: Fuc(a1-2)[GalNAc(a1-3)]Gal(b1-4)GlcNAc(b1-6)GalNAc
# In short: as §1
# [13] = molecular target: Fuc(a1-2)[GalNAc(a1-3)]Gal(b1-4)[Fuc(a1-3)]GlcNAc
# In short: as §1
# [14] = molecular target: Fuc(a1-2)[GalNAc(a1-3)]Gal(b1-4)[Fuc(a1-3)]GlcNAc(b1-3)GalNAc
# In short: as §1
# [15] = molecular target: Fuc(a1-2)[GalNAc(a1-4)]Gal(b1-4)GlcNAc
# In short: as §1
# [16] = molecular target: Fuc(a1-2)[GalNAc(b1-3)]Gal
# In short: as §1
# Fuc(a1-3)GlcNAc = molecular target: Fuc(a1-3)GlcNAc
# In short: as §1
# [17] = molecular target: Fuc(a1-3)[Gal(b1-4)]Glc6S
# In short: as §1
# [18] = molecular target: Fuc(a1-3)[Gal(b1-4)]GlcNAc
# In short: as §1
# [19] = molecular target: Fuc(a1-3)[Gal(b1-4)]GlcNAc(b1-2)Man
# In short: as §1
# [20] = molecular target: Fuc(a1-3)[Gal(b1-4)]GlcNAc(b1-2)Man(a1-3)[Fuc(a1-3)[Gal(b1-4)]GlcNAc(b1-2)Man(a1-6)]Man(b1-4)GlcNAc(b1-4)GlcNAc
# In short: as §1
# [21] = molecular target: Fuc(a1-3)[Gal(b1-4)]GlcNAc(b1-2)Man(a1-3)[Fuc(a1-3)[Gal(b1-4)]GlcNAc(b1-2)Man(a1-6)]Man(b1-4)GlcNAc(b1-4)[Fuc(a1-6)]GlcNAc
# In short: as §1
# [22] = molecular target: Fuc(a1-3)[Gal(b1-4)]GlcNAc(b1-3)Gal(b1-3)[Fuc(a1-4)]GlcNAc
# In short: as §1
# [23] = molecular target: Fuc(a1-3)[Gal(b1-4)]GlcNAc(b1-3)Gal(b1-4)[Fuc(a1-3)]GlcNAc
# In short: as §1
# [24] = molecular target: Fuc(a1-3)[Gal(b1-4)]GlcNAc(b1-3)Gal(b1-4)[Fuc(a1-3)]GlcNAc(b1-3)Gal(b1-4)[Fuc(a1-3)]GlcNAc
# In short: as §1
# [25] = molecular target: Fuc(a1-3)[Gal(b1-4)]GlcNAc(b1-3)GalNAc
# In short: as §1
# [26] = molecular target: Fuc(a1-3)[Gal(b1-4)]GlcNAc(b1-6)GalNAc
# In short: as §1
# [27] = molecular target: Fuc(a1-3)[Gal(b1-4)]GlcNAc(b1-6)[Gal(b1-3)GlcNAc(b1-3)]Gal(b1-4)Glc
# In short: as §1
# [28] = molecular target: Fuc(a1-3)[Gal(b1-4)]GlcNAc6S
# In short: as §1
# [29] = molecular target: Fuc(a1-3)[Gal3S(b1-4)]Glc
# In short: as §1
# [30] = molecular target: Fuc(a1-3)[Gal3S(b1-4)]GlcNAc
# In short: as §1
# [31] = molecular target: Fuc(a1-3)[Gal3S(b1-4)]GlcNAc6S
# In short: as §1
# [32] = molecular target: Fuc(a1-3)[GalNAc(b1-4)]GlcNAc
# In short: as §1
# [33] = molecular target: Fuc(a1-3)[GalNAc(b1-4)]GlcNAc6S
# In short: as §1
# Fuc(a1-4)GlcNAc = molecular target: Fuc(a1-4)GlcNAc
# In short: as §1
# Fuc(b1-3)GlcNAc = molecular target: Fuc(b1-3)GlcNAc
# In short: as §1
# Gal(a1-2)Gal = molecular target: Gal(a1-2)Gal
# In short: as §1
binder,measurement,setting,value
B1,glycan array binding signal (z-score),[1],-0.172
same,glycan array binding signal (z-score),[2],5.97
same,glycan array binding signal (z-score),[3],-0.173
same,glycan array binding signal (z-score),[4],-0.178
same,glycan array binding signal (z-score),[5],-0.176
same,glycan array binding signal (z-score),[6],-0.171
same,glycan array binding signal (z-score),[7],-0.171
same,glycan array binding signal (z-score),[8],-0.176
same,glycan array binding signal (z-score),[9],-0.172
same,glycan array binding signal (z-score),[10],-0.178
same,glycan array binding signal (z-score),[11],-0.174
same,glycan array binding signal (z-score),[12],5.98
same,glycan array binding signal (z-score),[13],-0.176
same,glycan array binding signal (z-score),[14],-0.167
same,glycan array binding signal (z-score),[15],4.51
same,glycan array binding signal (z-score),[16],5.17
same,glycan array binding signal (z-score),Fuc(a1-3)GlcNAc,-0.167
same,glycan array binding signal (z-score),[17],-0.155
same,glycan array binding signal (z-score),[18],-0.172
same,glycan array binding signal (z-score),[19],-0.175
same,glycan array binding signal (z-score),[20],-0.18
same,glycan array binding signal (z-score),[21],-0.172
same,glycan array binding signal (z-score),[22],-0.179
same,glycan array binding signal (z-score),[23],-0.168
same,glycan array binding signal (z-score),[24],-0.179
same,glycan array binding signal (z-score),[25],-0.17
same,glycan array binding signal (z-score),[26],-0.164
same,glycan array binding signal (z-score),[27],-0.176
same,glycan array binding signal (z-score),[28],-0.156
same,glycan array binding signal (z-score),[29],-0.171
same,glycan array binding signal (z-score),[30],-0.173
same,glycan array binding signal (z-score),[31],-0.177
same,glycan array binding signal (z-score),[32],0.065
same,glycan array binding signal (z-score),[33],-0.069
same,glycan array binding signal (z-score),Fuc(a1-4)GlcNAc,-0.173
same,glycan array binding signal (z-score),Fuc(b1-3)GlcNAc,-0.176
same,glycan array binding signal (z-score),Gal(a1-2)Gal,-0.176

# Source: the supplement of paper PMC8728848
